Drawing on the supplement of paper PMC9446081, this text covers relative growth for 58 compounds.

Among all 39,000 compounds or so, about 220 (0.56%) showed activity. This is one part of the list.
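Further: static incubation at 37 °C against the wild-type strain, values averaged over two biological replicates.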

For this experiment, the system named is Escherichia coli K-12 BW25113. Put plainly: relative growth (OD600 normalised to plate interquartile mean) (fraction); higher = less growth inhibition, active = 0.2 or less. The conditions noted are these: 50 µM; LB; incubation time: overnight (16-24 h).
Turning to `C[C@@H]1CN([C@@H](C)CO)C(=O)Cc2cc(NC(=O)CCN3CCOCC3)ccc2O[C@H]1CN(C)CC1CC1`, the relative growth was inactive: 0.993.
On to `C[C@@H]1CCCCO[C@@H](CN(C)S(=O)(=O)c2cn(C)cn2)[C@H](C)CN([C@H](C)CO)C(=O)c2cc(NS(=O)(=O)c3cn(C)cn3)ccc2O1`, for which the relative growth is inactive: 0.994.
The same measure for `C[C@@H]1CN([C@H](C)CO)C(=O)c2cc(NC(=O)Nc3ccc(C(F)(F)F)cc3)ccc2O[C@@H]1CN(C)Cc1ccccc1`: inactive: 0.948.
Turning to `C[C@H](CO)N1C[C@H](C)[C@@H](CN(C)C(=O)Nc2cccc3ccccc23)Oc2ccc(NC(=O)C3CCCCC3)cc2C1=O`, the relative growth was inactive: 0.998.
For `O=C(C[C@H]1CC[C@H](NS(=O)(=O)c2ccccc2F)[C@@H](CO)O1)NCCCN1CCOCC1`, the relative growth is inactive: 0.983.
As to `C[C@@H]1CN([C@@H](C)CO)C(=O)c2cc(NC(=O)Nc3ccccc3)ccc2O[C@@H](C)CCCCO[C@H]1CN(C)S(=O)(=O)c1cccs1`, the relative growth was inactive: 1.06.
Consider `CO[C@@H]1CN(C)C(=O)c2ccc(NS(C)(=O)=O)cc2OC[C@@H](C)N(S(=O)(=O)CC(F)(F)F)C[C@H]1C`, for which the relative growth was inactive: 0.981.
In the case of `COc1ccc(S(=O)(=O)N[C@H]2C=C[C@@H](CC(=O)NCCc3ccncc3)O[C@H]2CO)cc1`, the relative growth is inactive: 0.977.
Regarding `CN(C)[C@@H]1C(=O)[C@@H](C(N)=O)C(=O)[C@@]2(O)C(=O)[C@H]3C(=O)c4c(O)cccc4C[C@H]3C[C@@H]12`, the relative growth was inactive: 0.972.
As for `C[S+](CC[C@H](N)C(=O)O)C[C@H]1O[C@@H](n2cnc3c(N)ncnc32)[C@H](O)[C@@H]1O` (stereo partly drawn), the relative growth was inactive: 0.996.
In the case of `C=CCN(C(=O)[C@H]1N(CCOCCO)C(=O)[C@H]2[C@H](C(=O)O)[C@@H]3C=C[C@@]21O3)C(C)(C)C` it was inactive: 1.02; in that of `CO[C@@]12[C@@H]3N[C@@H]3CN1C1=C(C(=O)C(N)=C(C)C1=O)[C@@H]2COC(N)=O`, active: 0.0651; in that of `C[C@H](CO)N1C[C@H](C)[C@H](CN(C)S(=O)(=O)c2ccccc2)Oc2ccc(NC(=O)Cn3cnnn3)cc2C1=O`, inactive: 1.
For the compound `CO[C@H](CN(C)S(=O)(=O)c1cccc(Cl)c1)[C@H](C)CN([C@@H](C)CO)S(=O)(=O)c1ccc(Cl)cc1`, the relative growth was inactive: 1.05.
As to `c1ccc2c(c1)-c1ccc3ccc4cccc5cc-2c1c3c45`, the relative growth is inactive: 1.07.
The same measure for `C[C@H](CO)N1C[C@H](C)[C@@H](CN(C)Cc2ccccc2)Oc2ccc(NC(=O)Nc3cccc4ccccc34)cc2CC1=O`: inactive: 0.99.
The same measure for `C[C@H]1CCCCO[C@@H](CN(C)Cc2ccncc2)[C@@H](C)CN([C@@H](C)CO)C(=O)c2cc(NC(=O)c3ccccc3)ccc2O1`: inactive: 0.987; for `COc1ccc(S(=O)(=O)Nc2cccc3c2O[C@H](CN(C)Cc2ccncc2)[C@@H](C)CN([C@H](C)CO)C3=O)cc1`: inactive: 0.947.
For the compound `C[C@H](CO)N1C[C@H](C)[C@H](CN(C)S(=O)(=O)c2ccc(F)cc2)Oc2ccc(NS(=O)(=O)c3cn(C)cn3)cc2C1=O`, the relative growth is inactive: 1.02.
For the compound `COCC(=O)N1C[C@@H](C)[C@H](OC)CN(C)C(=O)c2cc(NC(=O)c3ccc(F)cc3)ccc2OC[C@@H]1C`, the relative growth is inactive: 1.02.
`COc1ccc(S(=O)(=O)N(C)C[C@@H]2Oc3ncc(C#CC4(O)CCCC4)cc3C(=O)N([C@@H](C)CO)C[C@H]2C)cc1`: the relative growth was inactive: 0.976.
As to `COCC(=O)N1C[C@@H](C)[C@@H](OC)CN(C)C(=O)c2cc(NC(=O)c3cc(C)on3)ccc2OC[C@@H]1C`, the relative growth was inactive: 1.02.
Regarding `COCC(=O)N(C)C[C@@H]1Oc2cc(C#CC(C)(C)O)ccc2S(=O)(=O)N([C@@H](C)CO)C[C@@H]1C`, the relative growth is inactive: 1.01.
Take `O=C(O)c1ccc(-c2ccco2)s1`: the relative growth was inactive: 0.985.
The same measure for `Cc1ccc(S(=O)(=O)N(C)C[C@H]2OCCCC[C@@H](C)Oc3ccc(NS(C)(=O)=O)cc3C(=O)N([C@@H](C)CO)C[C@H]2C)cc1`: inactive: 1.02; for `CC(C)NC(=O)N(C)C[C@H]1Oc2ccc(NS(=O)(=O)c3ccccc3)cc2C(=O)N([C@@H](C)CO)C[C@H]1C`: inactive: 0.979.
As to `C[C@@H]1CCCCO[C@@H](CN(C)C(=O)CCC(F)(F)F)[C@@H](C)CN([C@H](C)CO)C(=O)c2cc(NC(=O)CCC(F)(F)F)ccc2O1`, the relative growth is inactive: 0.969.
`CCOC(=O)N(C)C[C@H]1OCc2cn(nn2)CCCC(=O)N([C@@H](C)CO)C[C@H]1C`: the relative growth was inactive: 0.957.
Regarding `C[C@@H]1CCCCO[C@@H](CN(C)Cc2ccc3c(c2)OCO3)[C@H](C)CN([C@@H](C)CO)C(=O)c2cc(NC(=O)Nc3ccc4c(c3)OCO4)ccc2O1`, the relative growth was inactive: 1.03.
In the case of `COc1ccc(CN(C)C[C@H]2OCCCC[C@@H](C)Oc3ccc(NS(=O)(=O)c4ccc(C)cc4)cc3C(=O)N([C@H](C)CO)C[C@@H]2C)cc1` it was inactive: 1; in that of `C[C@@H]1CCCCO[C@@H](CN(C)S(=O)(=O)c2ccccc2)[C@@H](C)CN([C@H](C)CO)C(=O)c2cc(NS(=O)(=O)c3cn(C)cn3)ccc2O1`, inactive: 0.942; in that of `O=C(CCNNC(=O)c1ccncc1)NCc1ccccc1`, inactive: 1.01.
The same measure for `C[C@@H]1CN([C@@H](C)CO)S(=O)(=O)c2ccc(C3=CCCC3)cc2O[C@@H]1CN(C)S(=O)(=O)c1ccc(F)cc1`: inactive: 1.
Take `COc1ccc(CN(C)C[C@@H]2OCCCC[C@H](C)Oc3ccc(NC(=O)C4CCCCC4)cc3C(=O)N([C@H](C)CO)C[C@@H]2C)cc1`: the relative growth is inactive: 0.998.
With `C[C@@H]1CN([C@H](C)CO)C(=O)Cc2cc(NC(=O)c3ccncc3)ccc2O[C@H]1CN(C)S(=O)(=O)c1cn(C)cn1`, the relative growth was inactive: 0.982.
Regarding `C[C@@H]1CCCCO[C@@H](CN(C)CC2CCCCC2)[C@H](C)CN([C@H](C)CO)C(=O)c2cc(NS(=O)(=O)c3ccc(Cl)cc3)ccc2O1`, the relative growth was inactive: 0.991.
For the compound `COc1ccc(CN(C)C[C@@H]2OCCCC[C@@H](C)Oc3ccc(NS(=O)(=O)c4c(C)noc4C)cc3C(=O)N([C@H](C)CO)C[C@H]2C)cc1`, the relative growth is inactive: 0.987.
Take `O=C1/C(=C/c2cn(-c3ccccc3)nc2-c2ccc(OCc3ccccc3F)cc2)SC(=S)N1CCS(=O)(=O)O`: the relative growth is inactive: 1.
Consider `C[C@H](CO)N1C[C@H](C)[C@H](CN(C)CC2CCCCC2)Oc2ccc(NC(=O)Nc3ccc(C(F)(F)F)cc3)cc2C1=O`, for which the relative growth is inactive: 0.906.
In the case of `CC(=O)O[C@H]1C[C@@H]2CC[C@@H]3[C@H](CC[C@@]4(C)[C@H]3C[C@H]([N+]3(C)CCCCC3)[C@@H]4OC(C)=O)[C@@]2(C)C[C@@H]1N1CCCCC1`, the relative growth is inactive: 1.
The same measure for `CC(=O)c1ccc[nH]1`: inactive: 1.13; for `Cc1ccc(S(=O)(=O)N(C)C[C@H]2OCCCC[C@@H](C)Oc3ccc(NC(=O)C4CCCCC4)cc3C(=O)N([C@H](C)CO)C[C@H]2C)cc1`: inactive: 0.976; for `COc1ccc(S(=O)(=O)N(C)C[C@H]2Oc3ccc(NC(=O)Cn4cnnn4)cc3CC(=O)N([C@H](C)CO)C[C@@H]2C)cc1`: inactive: 0.99.
Consider `C=CCOC(=O)[C@@H]1[C@H]2C(=O)O[C@H](c3ccccc3)[C@H](c3ccccc3)N2[C@H](c2ccc(OCCOC(=O)NCCCCCC(=O)NO)cc2)[C@]12C(=O)Nc1ccc(I)cc12`, for which the relative growth was inactive: 1.01.
The same measure for `C[C@@H]1CCCCO[C@@H](CN(C)C(=O)C2CCCCC2)[C@H](C)CN([C@H](C)CO)C(=O)c2cc(NC(=O)Nc3ccc4c(c3)OCO4)ccc2O1`: inactive: 1.02.
For the compound `C[C@@H]1CN([C@@H](C)CO)C(=O)Cc2cc(NS(=O)(=O)c3ccc(Cl)cc3)ccc2O[C@H]1CN(C)Cc1ccc(-c2ccccc2)cc1`, the relative growth is inactive: 0.99.
The same measure for `COc1ccc(S(=O)(=O)Nc2ccc3c(c2)C(=O)N([C@@H](C)CO)C[C@@H](C)[C@@H](CN(C)S(=O)(=O)c2ccc(OC)cc2)O3)cc1`: inactive: 1.05.
`CNC[C@H]1OCCCC[C@H](C)Oc2ccc(NC(=O)Nc3ccc(C(F)(F)F)cc3)cc2C(=O)N([C@H](C)CO)C[C@@H]1C`: the relative growth is inactive: 1.01.
Take `Cc1noc(C)c1S(=O)(=O)N(C)C[C@H]1Oc2ccc(NS(=O)(=O)c3ccccc3)cc2CC(=O)N([C@H](C)CO)C[C@@H]1C`: the relative growth is inactive: 1.01.
Consider `CC(C)NC(=O)N(C)C[C@@H]1Oc2c(NC(=O)C3CCCCC3)cccc2C(=O)N([C@@H](C)CO)C[C@H]1C`, for which the relative growth is inactive: 1.
The same measure for `C[C@@H]1CN([C@@H](C)CO)C(=O)c2cc(Br)cnc2O[C@H]1CN(C)C(=O)CN1CCOCC1`: inactive: 1; for `COc1ccc(-c2cnc3c(c2)C(=O)N([C@@H](C)CO)C[C@H](C)[C@H](CN(C)S(=O)(=O)c2ccc(OC)cc2)O3)cc1`: inactive: 1.05.
In the case of `C[C@@H]1CN([C@H](C)CO)C(=O)c2cccc(NC(=O)Nc3ccccc3)c2O[C@@H]1CN(C)Cc1ccc(C(F)(F)F)cc1` it was inactive: 0.989; in that of `COc1ccc2c3c([nH]c2c1)[C@@H](CO)N(C[C@]13CCN(CC1)CC1CCCC1)C(=O)Nc1cccc(c1)F`, inactive: 0.978; in that of `C[C@H]1CN([C@@H](C)CO)C(=O)c2cccc(NC(=O)c3cnccn3)c2O[C@@H]1CN(C)S(=O)(=O)c1cccs1`, inactive: 0.984.
On to `O=C(C[C@H]1C=C[C@H](NS(=O)(=O)c2ccc(F)cc2)[C@H](CO)O1)NCCN1CCCCC1`, for which the relative growth is inactive: 1.01.
On to `C[C@@H]1CN([C@@H](C)CO)C(=O)c2cc(NC(=O)Nc3cccc4ccccc34)ccc2O[C@@H]1CN(C)Cc1ccc(C(F)(F)F)cc1`, for which the relative growth is inactive: 1.04.
In the case of `COc1ccc(S(=O)(=O)N(C)C[C@H]2Oc3ccc(NS(=O)(=O)c4cccs4)cc3CC(=O)N([C@H](C)CO)C[C@@H]2C)cc1` it was inactive: 1.02.
